The source of these data is paper PMC8641147.

Amino acid sequences for entries named in this document (tags omitted). A change or cut given only in a name is not applied to a line headed by its entry.
UniProt O43791: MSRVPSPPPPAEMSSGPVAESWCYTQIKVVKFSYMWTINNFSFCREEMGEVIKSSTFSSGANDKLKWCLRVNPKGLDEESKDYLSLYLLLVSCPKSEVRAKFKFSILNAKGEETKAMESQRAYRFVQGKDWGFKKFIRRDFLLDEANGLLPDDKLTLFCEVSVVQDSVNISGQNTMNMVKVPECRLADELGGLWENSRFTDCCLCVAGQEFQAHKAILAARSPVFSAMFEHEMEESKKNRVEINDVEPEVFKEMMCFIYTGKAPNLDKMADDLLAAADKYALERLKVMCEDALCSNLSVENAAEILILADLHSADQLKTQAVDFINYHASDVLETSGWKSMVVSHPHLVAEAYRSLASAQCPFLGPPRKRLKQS

These are yes or no findings as the source states them, for the method shown. Binding seen in cells or lysates may run through a third protein. Some binding calls cover weakened binding; strength is not graded here.

Assay [1] concerns the target HnRNPK as in Fig. 6D (construct not named) (UniProt P61978). The assay is described as follows: co-IP; 293 cells transfected with HA-SPOP-WT or prostate cancer-associated SPOP mutants; 10 uM MG132 for 10 h before harvesting; immunoblot of WCL and IP; the HnRNPK construct is not named (Fig. 6D).
Assay [2] addresses Flag-HnRNPK (Heterogeneous nuclear ribonucleoprotein K) (UniProt P61978). The assay is described as follows: co-IP; 293 cells transfected with both tagged partners; 30 h post-transfection 10 uM MG132 for 10 h; IP lysis buffer (25 mM Tris-HCl pH 7.4, 150 mM NaCl, 1 mM EDTA, 1% NP-40, 5% glycerol), antibody-conjugated beads 4 C 4 h; immunoblot of WCL and IP (Fig. 5D, 5G, 6B).
In a further assay the target is HA-HnRNPK (UniProt P61978). Described as above.

For SPOP W131G (from UniProt O43791 1-374), the binding entry in assay [1] is given as “no binding”.

For the substance “Myc-tagged Cullin 4A (from UniProt Q13619 1-759)”, the binding entry in assay [2] was “binds weakly”.

In the case of “Flag-tagged SPOP WT (speckle-type POZ protein) (from UniProt O43791 1-374)”, in the assay with HA-HnRNPK, the binding entry was “binds”.

For the substance SPOP F102C (from UniProt O43791 1-374), the binding result in assay [1] was “no binding”.

As to “HA-tagged SPOP-WT (from UniProt O43791 1-374)”, the binding entry in assay [2] and in assay [1] was “binds” each time.
